# Measurements from PMC4336329 (PLoS ONE, 2015).
# About 2,200 (0.71%) of roughly 310,000 compounds showed an effect of 50% or more. Effects have a minus sign here. The list shows a part of the results.
# Molecular target: human ether-à-go-go-related gene (hERG) potassium channel (human, UniProt Q12809)
# Test: primary screen, population patch clamp on CHO cells stably expressing hERG
# Chain of human ether-à-go-go-related gene (hERG) potassium channel (Q12809 whole entry, looked up): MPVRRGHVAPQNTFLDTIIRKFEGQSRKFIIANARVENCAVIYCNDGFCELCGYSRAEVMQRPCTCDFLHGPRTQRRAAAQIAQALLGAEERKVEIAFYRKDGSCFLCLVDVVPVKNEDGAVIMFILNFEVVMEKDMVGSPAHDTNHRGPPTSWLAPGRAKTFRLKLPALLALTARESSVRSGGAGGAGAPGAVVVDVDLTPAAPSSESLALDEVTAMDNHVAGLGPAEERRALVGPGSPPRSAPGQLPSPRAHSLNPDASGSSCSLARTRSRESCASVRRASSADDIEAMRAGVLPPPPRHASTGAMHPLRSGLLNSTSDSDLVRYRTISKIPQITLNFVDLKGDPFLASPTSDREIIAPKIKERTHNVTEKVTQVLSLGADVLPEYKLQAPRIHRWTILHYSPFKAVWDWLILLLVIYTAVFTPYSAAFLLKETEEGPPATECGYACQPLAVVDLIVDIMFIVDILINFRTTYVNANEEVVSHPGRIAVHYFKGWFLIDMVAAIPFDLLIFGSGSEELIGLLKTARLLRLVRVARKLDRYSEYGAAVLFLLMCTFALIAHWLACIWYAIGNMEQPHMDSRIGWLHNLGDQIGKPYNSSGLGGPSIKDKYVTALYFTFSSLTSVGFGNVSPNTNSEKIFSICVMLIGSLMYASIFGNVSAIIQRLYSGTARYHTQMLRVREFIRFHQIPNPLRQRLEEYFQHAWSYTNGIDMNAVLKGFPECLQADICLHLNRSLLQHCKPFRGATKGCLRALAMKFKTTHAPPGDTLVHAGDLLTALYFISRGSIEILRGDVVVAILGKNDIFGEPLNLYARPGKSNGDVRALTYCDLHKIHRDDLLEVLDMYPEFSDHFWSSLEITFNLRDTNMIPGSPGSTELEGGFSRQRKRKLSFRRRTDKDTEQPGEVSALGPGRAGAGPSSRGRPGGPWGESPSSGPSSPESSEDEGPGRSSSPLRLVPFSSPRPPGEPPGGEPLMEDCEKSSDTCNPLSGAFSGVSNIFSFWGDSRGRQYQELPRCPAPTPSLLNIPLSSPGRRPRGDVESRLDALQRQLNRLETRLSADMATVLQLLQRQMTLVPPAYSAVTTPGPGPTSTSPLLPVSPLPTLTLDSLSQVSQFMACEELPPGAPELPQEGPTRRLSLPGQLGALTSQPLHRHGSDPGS
row,SMILES,"hERG current change (%, negative = inhibition) at 1uM [%]"
1,CC(C)c1ccc2c(c1)C1Cc3ccccc3C1N2.O=C(O)C(F)(F)F (stereo not shown),6.21
2,Cc1ccc(CNC(=O)Nc2ccc(F)cc2)n1C,10.6
3,O=C(CSc1ccc(S(=O)(=O)N2CCCCC2)cn1)Nc1ccccc1Br,-0.585
4,Cc1ccc(S(=O)(=O)NC2CC3CCC2C3)cc1 (stereo not shown),8.24
5,Cc1ccnc(SCCn2c(N3CCOCC3)nc3c2c(=O)[nH]c(=O)n3C)n1,-11
6,CCC(Sc1nccn1C)C(=O)Nc1cccc2ccccc12 (stereo not shown),9.89
7,CNC(=O)c1nc(C)n(-c2cc(Cl)cc(Cl)c2)n1,7.97
8,O=C1CN(S(=O)(=O)c2ccc(Cl)cc2C(F)(F)F)CCN1,-1.87
9,Cn1nnc(NC(=O)CSc2ccc(Cl)cc2)n1,13
10,COc1ccc(C(=O)NCc2cccnc2)cc1Br,15.9
11,CC(C)C(NC(=O)C(NC(=O)C1O[C@@H]2OC(C)(C)O[C@@H]2[C@H]2OC(C)(C)O[C@@H]12)C(C)C)C(=O)O (stereo partly shown),10.8
12,O=C(NC1CCSc2ccccc21)c1cc(S(=O)(=O)N2CCOCC2)ccc1Cl (stereo not shown),5.63
13,Cc1c(/C=N/O)sc2ccccc12,7.77
14,COc1ccc(NC(=S)N2N=CCC2c2ccccc2)cc1 (stereo not shown),16.1
15,O=C(Cn1nc(C(=O)O)c2ccccc2c1=O)Nc1cc(Cl)ccc1-n1cncn1,11.3
16,Cc1cc(C)cc(OCc2ccc(C(=O)NN)o2)c1,16.5
17,FC(F)(F)c1ccncc1-c1nnc(C2CCCCC2)o1,15.5
18,CCCN1CCN(CC(=O)Nc2nnc(CC)s2)CC1,16.5
19,O=C(COC(=O)/C=C/C(=O)N1CCN(c2ccccc2)CC1)NC(c1ccccc1)c1ccccc1,10.3
20,COC(=O)C1=C(C(=O)OC)[C@@H]2N(C)c3ccc(OC)cc3[C@@]23C[C@@H](C(=O)OC)N(C(=O)c2ccc(Br)cc2)C3=N1,4.45

row,SMILES,"hERG current change (%, negative = inhibition) at 1uM [%]"
1,CC(C)(C)c1cc(C(=O)NNC(=O)Nc2cccc(Cl)c2)n(Cc2ccccc2)n1,12.4
2,CCCCCCOc1ccc(CN2CCN(C)CC2)cc1,-0.56
3,CC(C)CN(C(=O)CSc1ccc2c(c1)OCCO2)c1c(N)n(CC(C)C)c(=O)[nH]c1=O,7.87
4,S=C1NCCN1,16.3
5,COc1ccc(-c2nnc(SCC(=O)N3CCCC(C)C3)o2)c(OC)c1 (stereo not shown),8.13
6,Cn1cnc(S(=O)(=O)NCc2cccs2)c1,16.6
7,C/C(=N\Nc1nc(C)cc(=O)[nH]1)C1CC1,-5
8,Cc1occc1C(=O)N/N=C/C=C/c1ccccc1,-0.998
9,CCC(CC)c1nnc(NC(=O)C2=COCCO2)s1,8.82
10,CCc1cccc(CC)c1NC(=S)NC(C)c1ccccc1 (stereo not shown),-7.57
11,COc1ccc(CN(C)C(=O)c2ccc(NC(=O)CC3SC(N4CCCC4)=NC3=O)cc2)c(OC)c1 (stereo not shown),11.2
12,O=C(Nc1ccc(OC(=O)N2CCCC2)cc1)N1CCOCC1,3.18
13,CCCOc1ccc(CNCCCOCC)cc1OC.O=C(O)C(=O)O,1.93
14,COc1ccc(-c2nn(-c3ccccc3)cc2/C=N/Nc2ccc(S(N)(=O)=O)cc2[N+](=O)[O-])cc1OC,15
15,COc1cc(OC)c(OC)cc1/C=C(\C#N)C(=O)NCc1cccs1,17.2
16,CCCCCn1c(=O)c2ccccc2n2c(=S)[nH]nc12,5.25
17,CC/C(=N\NC(=O)c1ccccc1O)c1c(O)n(C2CCCCC2)c(=O)[nH]c1=O,19
18,C=CCn1c(COc2ccccc2)nnc1SCC(=O)O,0.176
19,CC(=O)Nc1ccc(NC(=O)c2ccc([N+](=O)[O-])cc2Cl)cc1,6.14
20,Cc1cc(=O)oc(C)c1C(=O)Nc1cccc2ccccc12,11

row,SMILES,"hERG current change (%, negative = inhibition) at 1uM [%]"
1,CCOC(=O)C(C)n1nc(/C=C/c2ccc(OC)cc2)ccc1=O (stereo not shown),2.35
2,CN(C)c1ccc(/C=N\NC(=O)c2cccc3cc[nH]c23)cc1,8.16
3,C/C(=C\C(=O)c1ccc(C)o1)Nc1ccc(C(=O)O)cc1C,3.78
4,CCn1c(SCC(=O)C(C)(C)C)nnc1-c1ccccc1OC,11
5,CS(=O)(=O)N(CC(=O)Nc1cccc(Cl)c1Cl)c1ccccc1,17.2
6,CN(C)CCC(O)c1ccccc1 (stereo not shown),8.63
7,Cc1cccc2sc(NNC(=O)c3ccc4c(c3)OCCO4)nc12,-4.43
8,CS(=O)(=O)O.NC1C2CN(c3nc4c(cc3F)c(=O)c(C(=O)O)cn4-c3ccc(F)cc3F)CC12 (stereo not shown),7.19
9,O=C1CN(CC(=O)N2CCCCC2)c2ccccc2O1,12.6
10,C/C=C/C(=O)N1CC2(CC(c3cccc(NC(=O)/C(C)=C/C)c3)=NO2)C[C@H]1C(N)=O (stereo partly shown),3.54
11,c1ccc(CCNc2c3c(nc4ncnn24)CCC3)cc1,-3.14
12,CCn1cc(C(=O)NCCCOC(C)C)c2cc(OC)c(OC)cc2c1=O,7.12
13,O=C(c1ccc(COc2ccccc2Cl)o1)N1CCN(Cc2ccc3c(c2)OCO3)CC1,6.53
14,O=C(CN1C(=O)NC2(CCCC2)C1=O)Nc1nc2ccccc2s1,6.67
15,Cc1nc(C)c(C(=O)N/N=C/c2c[nH]c3ccccc23)s1,21.3
16,O=C(CCS(=O)(=O)Cc1ccccc1)Nc1nncs1,22.7
17,Cc1ccc([C@@H]2[C@@H]3C(=O)N(C)C(=O)[C@@H]3[C@]3(Cc4ccccc4)C(=O)N(Cc4ccccc4)CC(=O)N23)o1,7.29
18,Cc1cccc(OCc2nnc(NC(=O)c3cccs3)s2)c1,1.72
